Assay results from PubChem BioAssay AID686979 (National Center for Advancing Translational Sciences (NCATS), 2013).
In all, about 420,000 compounds went through this assay and about 50,000 (12%) were called active. The inconclusive results got no clear call from the source; some entries with a clear call stand among them for comparison. Calls follow the shape of the dose curve; as a rule, active = well fitted inhibition curve with a large enough effect; inconclusive = small, poorly fitted or top-dose-only effect; inactive = flat fitted curve, though single readings scatter. Potencies of inconclusive entries are left out as doubtful fits.

Assay: qHTS for Inhibitors of human tyrosyl-DNA phosphodiesterase 1 (TDP1): qHTS in cells in presence of CPT; also: nearly all actives have a fitted effect of over 55% in size
Details: chicken DT40 Tdp1-/-;hTDP1 cells + 20 nM CPT, ATP luminescence, 48 h; activity change, negative = growth inhibition: at 46.2 µM (top of the series) unless noted
Method in brief: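 Chicken DT40 Tdp1-/- cells stably complemented with human TDP1 were seeded at 400 cells/well in medium containing 20 nM camptothecin, exposed to pin-transferred compounds, and grown at 37 °C for at least 48 hr. Viability was read as ATP luminescence.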
% is scaled to controls: 0 for no effect and ±100 for the full control effect; potency is read from the fitted curve at half-maximal effect; tags tell the direction and shape of the fitted curve.

Structure (SMILES) | Potency | activity change, negative = growth inhibition
CCOC(=O)c1c(NC(=O)C2=C(C)NC(=S)NC2c2ccc(C)cc2)sc(C)c1C (stereo not given) | inconclusive [inhibitor, single point] | –
O=C(NC(=S)Nc1cccc(Cl)c1Cl)C1CC1 | active: 13 µM | –
CCC(C)N(C(=O)CSc1nnc(-c2ccco2)n1C)C1CCS(=O)(=O)C1 (stereo not given) | – | inactive: 8.17%
O=C(COc1ccccc1Cl)Nc1ccc(-c2nc3ccccc3s2)cc1 | active: 5.8 µM | –
Cc1ccc(C(=O)N/C(=C\c2cccc([N+](=O)[O-])c2)C(=O)OCN2C(=O)c3ccccc3C2=O)cc1 | inconclusive [inhibitor, single point] | –
O=C(Nc1cccc(S(=O)(=O)N2CCCC2)c1)c1ccc2c(c1)OCO2 | inconclusive [inhibitor, single point] | –
Fc1cccc(Cc2c(-c3ccccc3)nc3c(Cl)cc(C(F)(F)F)cn23)c1 | – | inconclusive: -32.4% [inhibitor]
CCCCC(=O)NC1(C(F)(F)F)C(=O)N(CC(C)C)C2=C1C(=O)CC(C)(C)C2 (stereo not given) | inconclusive [inhibitor, single point] | –
O=c1[nH]c(N2CCCCC2)nc2c1CCCC2 | – | inactive: -24.4%
CC(=O)NCC1(c2ccccc2)CCN(CC2COc3ccccc3O2)CC1 (stereo not given) | – | inactive: 0.0782%
Cc1cccc(C)c1NC(=O)CN1C(=O)COc2ccccc21 | – | inactive: 12.5%
Cc1nc(N2CCN(c3ccccc3)CC2)nc2c1C(=O)CC(c1ccccc1)C2 (stereo not given) | inconclusive [inhibitor, single point] | –
CCOc1ccccc1/C=C(/NC(=O)c1ccccc1)C(=O)N(CC)CC | – | inactive: 7.46%
COc1ccc(CCNC(=O)C(=O)NCC(c2ccco2)S(=O)(=O)c2ccc(C)cc2)cc1 (stereo not given) | – | inactive: -22.7%
CCOC(=O)C1CCN(C(=O)Cc2cccs2)CC1 | inconclusive [inhibitor, single point] | –
COc1ccc(NC2CCN(C3CC(=O)N(c4ccc(F)c(Cl)c4)C3=O)CC2)cc1 (stereo not given) | inconclusive [inhibitor, single point] | –
Cc1nc(-c2cccc(S(=O)(=O)N3CC(C)CC(C)C3)c2)cs1 (stereo not given) | inconclusive [inhibitor, single point] | –
CNC(=S)N/N=C/c1cc(Br)cc(Br)c1O | inconclusive [inhibitor, partial curve, poor fit] | –
O=C(CCn1c(=O)c2cccn2c2cccnc21)N1CCN(c2cccc(C(F)(F)F)c2)CC1 | active: 14.6 µM | –
COc1ccc(N2C(=O)[C@H]3CCC=C[C@H]3[C@@H]2c2ccccc2Br)cc1 | inconclusive [inhibitor, single point] | –
O=C(CCN1CCOCC1)N1c2ccccc2Sc2ccc(Cl)cc21 | inconclusive [inhibitor, single point] | –
COc1ccc(N=Cc2c[nH][nH]c2=O)cc1 | inconclusive [inhibitor, partial curve] | –
CC(C)NC(=O)c1ccc(Cn2c(SCc3ccc(F)cc3)nc3cccnc32)cc1 | – | inactive: -29.2%
CCOc1cc(/C=C(/C#N)c2ccc(F)cc2)ccc1OCc1ccc(C(=O)O)o1 | inconclusive [inhibitor, single point] | –

Structure (SMILES) | Potency | activity change, negative = growth inhibition
C/C(=N/NC(=O)c1cc(C)[nH]n1)c1ccncc1 | – | inactive: -10.6%
CN1CCN(c2ccc(Nc3ccnc4cc(Cl)ccc34)cc2)CC1 | active: 4.61 µM | –
O=C1NCCc2onc(-c3ccc(Br)cc3)c21 | inconclusive [inhibitor, single point] | –
CCOC(=O)c1sc(NC(=O)CN2C(=O)NC3(CC(C)CC(C)(C)C3)C2=O)cc1C (stereo not given) | inconclusive [inhibitor, single point] | –
Cc1nc2cc(CC(=O)O)ccc2o1 | – | inactive: -7.44%
COc1ccc(OC)c(/C=C/c2nc3ccccc3c(=O)n2-c2ccc(F)c(Cl)c2)c1 | inconclusive [inhibitor, partial curve, poor fit] | –
Cc1ccc(NC(=O)C2CCCN(S(=O)(=O)c3c(C)n[nH]c3C)C2)c(C)c1 (stereo not given) | – | inactive: 6.11%
CC(C)N(C(=O)[C@H]1C[C@H](CC(=O)NCCc2ccccn2)C(=O)N2CCc3c([nH]c4cc(-c5ccco5)ccc34)[C@]12C)C(C)C | inconclusive [inhibitor, single point] | –
CCOC(=O)C1=NNC2(CC(=O)N(c3cccc(C)c3)C2=O)C1 (stereo not given) | – | inactive: -5.1%
CC(=O)N/N=C/c1cc(C(C)(C)C)cc(/C=N/NC(C)=O)c1O | – | inactive: -29%
CC(=O)c1cn(CC(=O)Nc2cccc(C)c2C)c2ccccc12 | inconclusive [inhibitor, partial curve] | –
CCC(C(=O)Nc1cc(C)ccc1C)n1c(=O)c(C(F)(F)F)nc2ccccc21 (stereo not given) | inconclusive [inhibitor, single point] | –
CCOC(=O)c1[nH]cnc1C(=O)N1CCN(C(=O)OC(C)(C)C)CC1 | – | inactive: 5.69%
COc1cc(C(C)=O)ccc1OCC(=O)Nc1ccc(Cl)c(S(=O)(=O)N2CCOCC2)c1 | active: 23.1 µM | –
Nc1c(Cl)cc(N=Nc2ccccc2)cc1Cl | inconclusive [inhibitor, single point] | –
CCOc1ccccc1CN(Cc1ccco1)S(=O)(=O)c1ccc(-n2cnnn2)c(OC)c1 | inconclusive [inhibitor, single point] | –
O=C(Nc1ccc2ncccc2c1)c1cc(Cl)ccc1Cl | inconclusive [inhibitor, single point] | –
COc1ccccc1S(=O)(=O)NCc1ccc(C(=O)NC2CCC(O)CC2)cc1 (stereo not given) | inconclusive [inhibitor, full curve, poor fit] | –
CCOC(=O)[C@@H]1[C@H]2COc3cc(OC)ccc3[C@H]2N2C(=O)N(c3ccc(F)cc3)C(=O)[C@]12C | inconclusive [inhibitor, single point] | –
CCOC(=O)C1=C(O)/C(=C\c2sccc2C)N=C1C | – | inactive: -12.2%
CC(C)C1COS(=O)(=O)NC1CC(=O)SC(C)(C)C (stereo not given) | inconclusive [inhibitor, partial curve] | –
O=C(Cc1csc(Nc2nc(=S)[nH]c3ccccc23)n1)NCc1ccc(Cl)cc1 | inconclusive [inhibitor, single point] | –
COc1ccc(NC(=O)C2=C(C)C(=O)OC23CCC(C)CC3)c(OC)c1 (stereo not given) | inconclusive [inhibitor, partial curve] | –
CC(=O)c1c(C)[nH]c(C(=O)NNC(=O)c2ccc(C)cc2)c1C | – | inactive: -1.41%

Structure (SMILES) | Potency | activity change, negative = growth inhibition
Cc1ccc(-n2c(C)cc(C(=O)OCC(=O)N(CC(C)C)C3CCS(=O)(=O)C3)c2C)cc1 (stereo not given) | inconclusive [inhibitor, partial curve] | –
CCOc1ccccc1NC(=S)N1CCN(c2cccc(OC)c2)CC1 | active: 20.6 µM | –
CCOC(=O)c1cnc2c(CC)cccc2c1NCCCN1CCOCC1 | inconclusive [inhibitor, single point] | –
N#Cc1ccc(NC(=O)Cn2cnc(S(=O)(=O)N3CCc4ccccc43)c2)cc1 | inconclusive [inhibitor, partial curve, poor fit] | –
Cc1ccc(C)c(S(=O)(=O)N2CCN(Cc3cc4c(cc3O)OCO4)CC2)c1 | inconclusive [inhibitor, single point] | –
CC(=O)c1c(C)n(CCc2ccc(Cl)cc2)c2ccc(O)cc12 | – | inactive: 10.9%
COc1ccc2c(n1)Sc1nc3ccccc3nc1N2 | inconclusive [inhibitor, single point] | –
COc1ccc(-c2cnc(-c3cccnc3)o2)cc1 | – | inactive: -7.17% [at 9.04 µM]
Cc1ccc(Nc2cc(C)nc3ncnn23)cc1 | – | inactive: 11.8%
O=C(OCc1ccccc1)N(CCCCN(CCCNCc1ccccc1)C(=O)OCc1ccccc1)CCCNCc1ccccc1 | active: 5.17 µM | –
COCCn1c(=O)cnc2cnc(Nc3cccc(OC)c3)nc21 | active: 9.2 µM | –
C=C1C(=O)O[C@@H]2[C@H]1[C@@H](OC(=O)/C(C)=C/C)C/C(C)=C\C(=O)/C=C(\C)[C@@H]2O | active: 1.46 µM | –
COc1cccc(/C=C2\SC(=S)N(CCCC(=O)Nc3cccc(C(=O)O)c3)C2=O)c1 | – | inactive: 2.46%
C/C(=N\NC(=S)NC(C)C)c1cccc([N+](=O)[O-])c1 | active: 0.92 µM | –
O=C(Oc1cccnc1)c1cc2ccccc2oc1=O | – | inactive: -3.36%
O=[N+]([O-])c1cc2c(cc1CN1CCN(c3ccc(F)cc3)CC1)OCO2 | inconclusive [inhibitor, single point] | –
CC(=O)c1[nH]c(C)c(C(=O)N2CCCC(Nc3ccc(C(C)C)cc3)C2)c1C (stereo not given) | inconclusive [inhibitor, single point] | –
CC(=O)Nc1ccc(/C=C/c2sc3ccccc3[n+]2CCCCI)cc1 | inconclusive [inhibitor, single point] | –
CN(C)CCCNC(=S)NCC(c1ccc(Cl)cc1Cl)c1c[nH]c2ccccc12 (stereo not given) | inconclusive [inhibitor, single point] | –
C=CCn1c(SCC(=O)N2CCOCC2)nc2c([nH]c3ccccc32)c1=O | inconclusive [inhibitor, partial curve] | –
COCC(=O)n1nc(-c2ccco2)nc1NCc1ccccc1Cl | inconclusive [inhibitor, single point] | –
Cc1ccc(C(C)C)c(OCc2ccc(C(=O)N/N=C/c3ccc(O)cc3O)cc2)c1 | inconclusive [inhibitor, single point] | –
